Assay results as given in PubChem BioAssay AID463173 (ICCB-Longwood Screening Facility, Harvard Medical School, 2010).
About 1,700 (3.3%) of roughly 52,000 compounds were called active. Cut-off read from the data, not from the text of the source: active = survival mostly below about 52% (no sharp cut-off); inactive = mostly above about 56%. The list shows a part of the results.

The compounds below were run on Wild type (assay: S. aureus survival, RN4220 and DeltatarO strains – OD600, teichoic acid synthesis inhibitors, primary screen (AID 463173)). Conditions: S. aureus RN4220 wild type/DeltatarO growth, OD600, 18 h, stronger effect = lower value, screened at 18.75 µg/mL (by protocol).

| Structure (SMILES) | survival |
| --- | --- |
| COc1ccc(S(=O)(=O)N(CCc2ccccc2)CC(=O)Nc2cccc(OC)c2)cc1 | inactive: 118% |
| CC(C)(C)OC(=O)N1CCN(C(=O)OC(C)(C)C)CC1 | inactive: 109% |
| COc1ccccc1N1CCN(c2ncnc3c2cnn3C)CC1 | inactive: 72% |
| CCc1ccc(C(=O)COC(=O)C(Cc2c[nH]c3ccccc23)NC(=O)c2ccc(Br)cc2)cc1 (configuration not stated) | inactive: 128% |
| O=C(CSc1ccccc1)Nc1ccc2c(c1)OCO2 | inactive: 109% |
| CCOc1ccc(C2c3cc(OCC)c(OCC)cc3CC(=O)N2c2ccc(C(=O)O)cc2)cc1OCC (configuration not stated) | inactive: 93% |
| Cn1c(C(=O)OCC(=O)NC2CCCCC2)cc2sccc21 | inactive: 113% |
| CCn1c2ccccc2c2cc(/C=N/NC(=O)c3ccncc3)ccc21 | inactive: 133% |
| CCc1cccc(C)c1NC(=O)Cn1ccn(-c2ccc(F)cc2)c(=O)c1=O | inactive: 83% |
| Cc1nc2ccc(S(=O)(=O)N(C)CC(=O)Nc3ccc(Br)c(C)c3)cc2s1 | inactive: 79% |
| CCOc1ccc(C2CC(=O)c3c([nH]c(C(=O)OCc4ccccc4)c3C)C2)cc1 (configuration not stated) | inactive: 94% |
| CC1CCN(C(=O)Cn2nnc3ccccc3c2=O)CC1 | inactive: 100% |
| COc1ccc(CCN2C(=O)c3oc4ccc(F)cc4c(=O)c3C2c2ccc(C(C)(C)C)cc2)cc1 (configuration not stated) | inactive: 70% |
| O=C(CSc1nc(-c2ccccc2)no1)N1CCCCC1 | inactive: 79% |
| CCOC(=O)N1CCc2c(sc3c2c(=O)n(CCc2ccccc2)c(=O)n3Cc2ccc(F)cc2)C1 | inactive: 107% |
| COc1ccc(C(=O)CN2C(=O)N(c3ccc(C(C)=O)cc3)S(=O)(=O)c3ccccc32)cc1 | inactive: 80% |
| O=C(O)CN(c1cccc(C(F)(F)F)c1)S(=O)(=O)c1ccccc1 | inactive: 108% |
| Cc1ccccc1-c1nn2c(=O)cc(CN3CCN(C(=O)c4ccc(C(C)(C)C)cc4)CC3)nc2s1 | inactive: 113% |
| COc1ccc(S(=O)(=O)N2CCC(n3c(C(F)(F)F)nc4cccnc43)CC2)cc1OC | inactive: 93% |

| Structure (SMILES) | survival |
| --- | --- |
| Cc1ccc(Cn2nnc(C(=O)Nc3ccc(F)c(F)c3)c2N)cc1 | inactive: 89% |
| CCOC(=O)c1cc(C(=O)OCC)c(=S)[nH]c1O | inactive: 103% |
| Cc1ccc(N(C)C(=O)C2CCN(S(=O)(=O)c3ccc4c(c3)CCCN4C(=O)C3CCC3)CC2)cc1 | inactive: 71% |
| O=C(Nc1ccc(N2CCOCC2)cc1)c1ncn[nH]1 | inactive: 116% |
| CCOc1ccccc1-n1cc2c(c1-c1ccc(OC)cc1)c(=O)n(C)c(=O)n2C | inactive: 84% |
| COC(=O)c1ccc(NC(=O)CN2CCN(c3ccc(Cl)cc3)CC2)cc1 | inactive: 69% |
| O=C1CC(c2ccccc2)Cc2[nH]c(=O)c(C(=O)Nc3cccc(Cl)c3)cc21 (configuration not stated) | active: 0% |
| COc1ccc(NC(=O)c2cn(-c3ccccc3)nc2-c2ccc(C)cc2)cc1 | inactive: 93% |
| CCC(=O)Nc1cccc(NC(=O)CSc2nnnn2C2CCCC2)c1 | inactive: 89% |
| Cc1c(Cl)cccc1NC(=O)CN1C(=O)COc2ccc(S(=O)(=O)Nc3ccccc3)cc21 | inactive: 75% |
| COc1ccc(NC(=O)c2ccc3c(c2)CCN3S(=O)(=O)c2ccc(C)cc2)cc1Cl | inactive: 109% |
| CCOC(=O)c1cccc(NC(=O)C(C)n2c(C)c3cnn(-c4ccccc4)c(=O)c3c2C)c1 (configuration not stated) | inactive: 128% |
| CCCOC(=O)CSc1nnc2ccc3ccccc3n12 | inactive: 96% |
| O=C(CSc1nc2ccccc2nc1Cc1ccccc1)Nc1ccc2c(c1)OCO2 | inactive: 83% |
| COc1ccc(-c2cc3nccc(C4CCN(C(=O)OC(C)(C)C)CC4)n3n2)cc1 | inactive: 85% |
| O=C(NC1CC2CCCC(C1)N2CC(=O)N1CCCc2ccccc21)c1ccccc1 (configuration not stated) | inactive: 97% |
| CC(C)NS(=O)(=O)c1ccc2nc(NC(=O)c3cncc(Br)c3)sc2c1 | inactive: 68% |
| CCCOc1ccc(C2C3CN(CC)CC=C3C(C#N)=C(N)C2(C#N)C#N)cc1OC (configuration not stated) | inactive: 74% |
| Cc1ccc(NC(=O)CN(C)S(=O)(=O)c2ccc3nc(C)sc3c2)c(C)c1 | inactive: 93% |

| Structure (SMILES) | survival |
| --- | --- |
| CCCSCCCNC(=O)c1ccc(Cn2c(=O)c3cccn3c3cccnc32)cc1 | inactive: 89% |
| COc1ccc(Cl)cc1NC(=O)CCc1c(C)nc2c(c1C)c(=O)n(C)c(=O)n2C | inactive: 76% |
| COc1cc(NC(=O)CSc2nc3nc(C)c(Cc4ccc(C)cc4)c(C)n3n2)cc(OC)c1 | inactive: 128% |
| Cc1nc(-c2ccccc2)sc1CCNC(=O)c1ccco1 | inactive: 117% |
| O=C(Nc1ccccc1C1CC1)c1cccs1 | inactive: 119% |
| CCc1ccccc1NC(=O)CSc1ncc2c(n1)-c1ccccc1N(Cc1ccc(C)cc1)S2(=O)=O | inactive: 78% |
| CCN(C(=O)Cn1ncc2c1-c1cc(C)ccc1OC2)c1cc(Cl)ccc1OC | inactive: 23% |
| Cc1ccc(S(=O)(=O)c2cn(Cc3ccccc3)c3cc(N4CCCC4)c(F)cc3c2=O)cc1C | inactive: 74% |
| COc1ccccc1CNS(=O)(=O)c1c(C)nc2sccn2c1=O | inactive: 86% |
| CCN(Cc1ccccc1)C(=O)CCNS(=O)(=O)c1ccc2c(c1)CC(C)N2C(C)=O (configuration not stated) | inactive: 114% |
| CCOC(=O)c1ccccc1NS(=O)(=O)c1c(-c2ccc(C)cc2)csc1C(=O)OC | inactive: 134% |
| COc1cccc(CNC(=O)CCc2c(C)c3cc4c(C)c(C)oc4cc3oc2=O)c1 | inactive: 111% |
| CC1CCN(C(=O)CCCOc2ccc(Cl)cc2)CC1 | inactive: 109% |
| COCCNC(=O)Cn1nnc(-c2ccc(OC)cc2)n1 | inactive: 103% |
| O=C(Nc1ccc(NC(=O)c2cccs2)cc1)c1ccc(Br)cc1 | inactive: 135% |
| CC(C)(C)C(=O)Nc1ccc2nc(SCC(=O)N3CCCC3)sc2c1 | inactive: 96% |
| CCOC(=O)C(CC)Sc1nnc(COc2ccc(Cl)c(C)c2)n1CC (configuration not stated) | inactive: 103% |
| O=C(OCc1ccccc1Cl)c1ccc(-c2nnn(Cc3ccccc3)n2)cc1 | inactive: 64% |
| CC(C)Oc1ccc(CNC(=O)c2ccc(NC(=O)c3nsc4ccccc34)cc2)cc1 | inactive: 64% |
